Structures can show the parent of a compound that is named as a salt. Where two headings read alike, the source gives them in different places. Marks after values point to notes of the source that are not given here.
Key:
[1] = MLM stability assay; details: mouse liver microsomes; percentage of compound remaining after 30 min; 10 μM
[2] = In vivo PK, mouse
[3] = rat liver microsomes; percentage of compound remaining after 30 min; 10 μM
[4] = test system: MMTV-PyMT driven mouse breast cancer model; details: 70 mg/kg q.d. oral
[5] = mouse plasma, single po dose 50 mg/kg
[6] = read-out: Cmax(PO), mouse plasma, single po dose 50 mg/kg
[7] = female, mouse, in vivo, po, 50 mg/kg

In the case of CS(=O)(=O)c1cc(-c2ccccc2)cc(S(=O)(=O)c2ccc(CN)s2)c1 [Compound 3a], the “MLM stability (%)” value [1] is reported as “(i) 64%”.
With NCc1ncc(S(=O)(=O)c2ccc3ccccc3c2)s1 [Compound 6] the “AUC(PO)” value [2, 5] was 4.20 µM·h and the Cmax [2, 6] was 6.35 µM.
In the case of CS(=O)(=O)c1cc(-c2ccccc2)cc(S(=O)(=O)c2cnc(CN)s2)c1 [Compound 7a, (5-((5-(Methylsulfonyl)-[1,1′-biphenyl]-3-yl)sulfonyl)thiazol-2-yl)methanamine Hydrochloride], the AUC [2, 7] is reported as over 18 µM·h, the Cmax [2, 7] is reported as at most 32 µM and the “AUC(PO)” value [2, 5] is reported as 21.61 µM·h. For the same compound, the “t1/2(PO)” value ([2]; mouse, single po dose 50 mg/kg) was 53.4 min and the Cmax [2, 6] was 32 µM.
For CCc1cc(-c2ccccc2)cc(S(=O)(=O)c2cnc(CN)s2)c1 [Compound 7e, (5-((5-Ethyl-[1,1′-biphenyl]-3-yl)sulfonyl)thiazol-2-yl)methanamine Hydrochloride], the “AUC(PO)” value [2, 5] was 9.97 µM·h and the Cmax [2, 6] was 10.2 µM.
In the case of CCc1cc(-c2cnn(C)c2)cc(S(=O)(=O)c2cnc(CN)s2)c1 [Compound 21b, (5-((3-Ethyl-5-(1-methyl-1H-pyrazol-4-yl)phenyl)sulfonyl)thiazol-2-yl)methanamine Hydrochloride], the “MLM stability (%)” value [1] is reported as “(i) 76%”, the Cmax [2, 7] is reported as at most 32 µM and the “RLM stability (%)” value [3] is reported as “(ii) 82 ^b %”. For the same compound, the “deaths due to tumor volume reaching ethical size limits (Kaplan–Meier survival)” value [4] was “no deaths due to tumor volume reaching ethical size limits”.
CCc1cc(-c2cnn(C)c2)cc(S(=O)(=O)c2csc(CN)n2)c1 [Compound 22d, (4-((3-Ethyl-5-(1-methyl-1H-pyrazol-4-yl)phenyl)sulfonyl)thiazol-2-yl)methanamine Hydrochloride] showed an AUC [2, 7] of over 18 µM·h, a Cmax [2, 7] of at most 32 µM and a bioavailability [2, 7] of 68%. For the same compound, the “AUC(PO)” value [2, 5] was 20.98 µM·h and the “t1/2(PO)” value ([2]; mouse, single po dose 50 mg/kg) was 60 min.

From paper PMC7073924, “2-Aminomethylene-5-sulfonylthiazole Inhibitors of Lysyl Oxidase (LOX) and LOXL2 Show Significant Efficacy in Delaying Tumor Growth” (Journal of Medicinal Chemistry, 2019)
